Hit rate of the full screen: of about 150,000 compounds, about 180 (0.12%) were called active. Inconclusive results, whose numbers are uncertain, are shown with a selection of clear calls. Calls follow the shape of the dose curve; as a rule, active = well fitted cell-killing curve with a large enough effect; inconclusive = small, poorly fitted or top-dose-only effect, or effect the other way; inactive = flat fitted curve, though single readings scatter. Potencies of inconclusive entries are doubtful fits and often do not repeat.
Assay: GF-AFC viability counterscreen for inhibitors of alpha-synuclein gene (SNCA) expression; also: nearly all actives have a fitted effect of over 30% in size
Details: HEK-293-SNCA-luc viability, GF-AFC fluorescence, 24 h; series mostly up to 57.1 µM
Summary of the method: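 HEK-293-SNCA-luc cells (1500/well) plated 24 h, then exposed 24 h to a dilution series; GF-AFC added 30 min at 37C, fluorescence 405/540 nm; normalised to medium-only and DMSO wells, Hill fit.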
Potency is read from the fitted curve at half-maximal effect; tags tell the direction and shape of the fitted curve.

| SMILES | Potency |
| --- | --- |
| CC1=C[C@@H](CNCc2cccnc2)[C@H](C(C)C)C[C@H]1Cc1nnc(-c2ccc(N(C)C)cc2)o1 | inconclusive: 25.1 µM [cytotoxic, single point] |
| Cc1ccc(CN2CCC3(CC2)OC(=O)N(Cc2ccc(O)cc2)C3(C)c2ccccc2)o1 (stereo not drawn) | inactive |
| COc1ccc(C(=O)N2CCC[C@H]2c2nc(-c3ccc(OC)c(OC)c3)no2)cc1 | inconclusive: 2.24 µM [cytotoxic, full curve, poor fit] |
| Cc1cc(C(=O)N2CCC3(CCNCC3)CC2)c2cccc(C)c2n1 | inconclusive: 1 µM [cytotoxic, full curve, poor fit] |
| COc1cc(OC)cc(C(=O)N2CCC[C@H]2c2nc(-c3ccccc3)no2)c1 | inconclusive: 28.2 µM [rising, partial curve, poor fit] |
| Cc1ccc2nc(C3CCCN(Cc4cccc(-c5ccc(F)cc5F)c4)C3)[nH]c(=O)c2c1 (stereo not drawn) | inactive |
| O=C(c1ccncc1)N1CCC2(CC1)CC(N1CCCCC1)CCO2 (stereo not drawn) | inconclusive: 7.08 µM [cytotoxic, single point] |
| O=C(Nc1ccc(F)c(Cl)c1)C1CCCN1S(=O)(=O)c1ccc(F)cc1 (stereo not drawn) | inconclusive: 4.47 µM [cytotoxic, partial curve] |
| Nc1c(C(=O)Nc2ccc(Cl)cc2F)sc2nc(-c3cccs3)ccc12 | inconclusive: 20 µM [rising, partial curve] |
| O=c1ccc2ccc(OCCCCN3CCN(c4cccc5sccc45)CC3)cc2[nH]1 | inconclusive: 26.7 µM [cytotoxic, single point] |
| Cc1nc(C2CC(NC3CCN(c4ccccc4F)CC3)C2)cc(=O)[nH]1 (stereo not drawn) | inconclusive: 3.16 µM [rising, single point] |
| O=S(=O)(NCC1CN(CC2CC2)CC12CCCCC2)c1cccs1 (stereo not drawn) | inactive |
| O=C(Nc1ccc(Cl)cc1)c1nc2c(o1)CCN(Cc1cccc(F)c1F)CC2 | inactive |
| COc1cccc(N2C(=O)NC(=NC3CCCCC3)C23CCN(Cc2ccsc2)CC3)c1 | inactive |
| Cc1ccccc1Oc1nc2c(c(=O)n(C)c(=O)n2C)n1Cc1ccc(Br)cc1 | inconclusive: 39.8 µM [rising, single point] |
| O=C(C1CCCC1)N1Cc2ccccc2CC2(CCCN(CC3CCNC3)C2)C1 (stereo not drawn) | inconclusive: 31.6 µM [cytotoxic, partial curve, poor fit] |
| COc1cccc(Cn2c(=O)c(-c3cccs3)nc3cnc(N4CCNCC4)nc32)c1 | inconclusive: 14.1 µM [rising, partial curve] |
| CN(c1ccccc1)S(=O)(=O)c1ccc(NC(=O)c2nc(S(C)(=O)=O)ncc2Cl)cc1 | inconclusive: 7.08 µM [cytotoxic, single point] |
| COc1ccc(Cl)cc1NC(=O)c1cc2c(=O)n3ccccc3nc2s1 | inconclusive: 7.08 µM [rising, full curve, poor fit] |
| O=C(CSc1cn(CC(=O)N2CCCC2)c2ccccc12)Nc1ccc(Cl)cc1 | inconclusive: 39.8 µM [cytotoxic, single point] |
| CC1=C[C@@H](CNC(=O)c2ccccn2)[C@H](C(C)C)C[C@H]1CC(=O)N1CCCC1 | inconclusive: 6.31 µM [cytotoxic, partial curve, poor fit] |

| SMILES | Potency |
| --- | --- |
| CCc1ccccc1NC(=O)Cn1c(-c2cccc(Cl)c2)nc(C)c(CCO)c1=O | inconclusive: 7.94 µM [cytotoxic, full curve, poor fit] |
| CCOCC(=O)N1CCCn2cc(-c3ccccc3)nc21 | inactive |
| COc1ccc(-c2nc(C3CC3)nc3c2CCN(Cc2ccnn2C)CC3)cc1 | inconclusive: 8.91 µM [cytotoxic, single point] |
| COc1ccc(C2NC(=O)N(C)C3=C2C(=O)N(c2ccc(Br)cc2)C3)cc1 (stereo not drawn) | inconclusive: 25.1 µM [cytotoxic, partial curve, poor fit] |
| CC(C)Oc1ccc(CN2C(=O)C3(CCOCC3)CC2c2nnnn2C(C)(C)C)cc1 (stereo not drawn) | inconclusive: 5.62 µM [cytotoxic, single point] |
| COc1ccccc1-c1ncc2c(n1)OCCN(c1cccc(C(F)(F)F)c1)C2=O | inconclusive: 8.91 µM [cytotoxic, full curve, poor fit] |
| COc1ccc(CC(=O)Nc2ccc3n(c2=O)C[C@H]2C[C@@H]3CN(C(=O)c3ccc(-c4ccccc4)cc3)C2)cc1 | inactive |
| Cc1ccccc1S(=O)(=O)Cc1ccc(C(=O)N2CCN(c3cccc(Cl)c3)CC2)o1 | inconclusive: 25.1 µM [cytotoxic, partial curve, poor fit] |
| Cc1cnc(CC2CCN(C(=O)N(C)C)C2)n1Cc1ccccc1 (stereo not drawn) | inconclusive: 8.91 µM [cytotoxic, single point] |
| CCN1CCN(Cc2c(O)ccc3c(C)c(-c4ccc(OC)cc4)c(=O)oc23)CC1 | inconclusive: 12.6 µM [rising, partial curve] |
| Cc1cc(C)c(NC(=O)CSc2ncc3c(n2)-c2cc(Cl)ccc2N(C)S3(=O)=O)c(C)c1 | inconclusive: 35.5 µM [cytotoxic, partial curve, poor fit] |
| C=Cc1ccc(Cn2c(C(=O)O)c(CNCc3ccc(F)cc3)c3ccc(C)cc32)cc1 | inconclusive: 25.1 µM [cytotoxic, partial curve, poor fit] |
| O=C(CC[C@H]1NC(=O)c2ccccc2NC1=O)NCCc1ccc(O)cc1 | inactive |
| Cn1nccc1CN1CCCC2(CC(c3cccc(C(F)(F)F)c3)=NO2)C1 (stereo not drawn) | inactive |
| O=C(CCc1ccccc1)N1CCN(C(=O)c2nnn3c2COC(c2ccc(Cl)cc2)C3)CC1 (stereo not drawn) | inconclusive: 15.8 µM [cytotoxic, partial curve, poor fit] |
| CC(C)(C)c1ccc(/C=C/C(=O)Nc2ccc(S(N)(=O)=O)cc2)cc1 | inconclusive: 39.8 µM [cytotoxic, single point] |
| O=C1CCN(S(=O)(=O)c2ccccc2)CCCC(C(=O)NC2CCCC2)CCN1 (stereo not drawn) | inactive |
| COc1ccc(-c2nc3c(C)cccc3cc2CN2CC[C@@H](O)C2)cc1 | inconclusive: 14.1 µM [cytotoxic, partial curve, poor fit] |
| COc1ccc2ccccc2c1CCNC(=O)CC1C(=O)NCCN1C(C)C (stereo not drawn) | inactive |
| COc1cc2ccccc2cc1C(=O)Nc1cccc(-c2nc3cc(C)c(C)cc3o2)c1 | inactive |
| CC1(C)[C@H](Cc2cc(CC3CCCCC3)on2)C[C@@H]1NC(=O)c1ccco1 | inconclusive: 35.5 µM [cytotoxic, single point] |

| SMILES | Potency |
| --- | --- |
| CCc1ccc(NC(=O)c2ccc(-c3ccccc3)s2)cc1 | inactive |
| COc1ccccc1OCCNC(=O)c1ccc2c(c1)C(O)CCCCCN2C (stereo not drawn) | inactive |
| CN(C(=O)CN1C(=O)NC2(CCOCC2)C1=O)c1ccccc1 | inactive |
| O=C(CC1N=C2c3ccccc3N=C(SCc3ccc(F)cc3)N2C1=O)NCc1ccc2c(c1)OCO2 (stereo not drawn) | inconclusive: 39.8 µM [cytotoxic, single point] |
| O=C(CCc1cc(Cl)no1)N1CCc2nc3cc(-c4ccccc4)[nH]n3c(=O)c2C1 | inactive |
| COc1ccc(-c2nc(C3CC3)nc3c2CCN(Cc2cccn2C)CC3)cc1 | inconclusive: 7.08 µM [cytotoxic, single point] |
| Cc1ccc(-c2nc3cnccn3c2NCCC(=O)O)cc1 | inconclusive: 28.2 µM [rising, partial curve, poor fit] |
| O=C(O)c1ccc(-c2nc3ccncc3[nH]2)cc1 | inconclusive: 12.6 µM [cytotoxic, single point] |
| CC(C)(C)NC(=O)C[C@@H]1CCNC[C@@H]1Cc1cc(-c2ccc(C(C)(C)C)cc2)on1 | inconclusive: 56.2 µM [cytotoxic, single point] |
| COc1ccc(C(=O)N2CCC3(CC2)CC(Cc2nc(-c4ccccc4)no2)CCO3)cc1 (stereo not drawn) | inconclusive: 14.1 µM [cytotoxic, partial curve, poor fit] |
| CC1CCC(NC(=O)c2ccc(CS(=O)(=O)c3cccc(C(F)(F)F)c3)o2)CC1 (stereo not drawn) | inconclusive: 22.4 µM [cytotoxic, single point] |
| Cc1ccc(NCc2cccn2-c2nnc(N3CCC(C(=O)NCCC(C)C)CC3)s2)cc1 | inconclusive: 20 µM [cytotoxic, single point] |
| CN(C)C[C@@H]1CN(Cc2ccncc2)C[C@H]1NC(=O)c1ccoc1 | inactive |
| CCCn1c(C)cnc1C1CCN(C(=O)NC)C1 (stereo not drawn) | inconclusive: 6.31 µM [cytotoxic, single point] |
| CSc1ccc(-c2cccc(C(=O)NCC(=O)NCc3cccc(C(F)(F)F)c3)c2)cc1 | inactive |
| O=C(NC1CCC(O)CC1)C1CCCN(c2nc(-c3ccccc3)nc3c2CCC3)C1 (stereo not drawn) | inactive |
| O=C([C@@H]1C[C@H](F)CN1S(=O)(=O)Cc1ccccc1)N1CCc2ccccc2C1 | inconclusive: 12.6 µM [cytotoxic, partial curve, poor fit] |
| Cc1cc(F)ccc1OC1CN(Cc2ccc(N(C)C)cc2)C1 | inactive |
| O=C1[C@H](O[C@@H]2O[C@H](CO)[C@@H](O)[C@H](O)[C@H]2O)Oc2ccccc2N1O | inconclusive: 0.0131 µM [cytotoxic, full curve, poor fit] |
| O=C(C[C@@H]1CCNC[C@@H]1Cc1cc(COc2ccccc2)on1)N1CCN(c2ccc(F)cc2)CC1 | inconclusive: 25.1 µM [cytotoxic, single point] |
| COc1ccc(-c2nc3cnc(Nc4cccc(OC)c4)nc3n(C[C@H]3CCCO3)c2=O)cc1 | inconclusive: 3.16 µM [rising, partial curve, poor fit] |
